Results reported in PubChem BioAssay AID588579 (National Center for Advancing Translational Sciences (NCATS), 2011).
Several values for one entry are separate records, joined by “and”; a condition that tells them apart may be missing. Identical values can stand only once. Out of some 400,000 compounds screened, about 2,200 (0.55%) were called active. This list was built around the results that the source calls inconclusive (neither active nor inactive); the mix of calls is not that of the screen. Calls follow the shape of the dose curve; as a rule, active = well fitted inhibition curve with a large enough effect; inconclusive = small, poorly fitted or top-dose-only effect, or another doubt; inactive = no such curve, though single readings can be large or run the other way. Potencies beside an inconclusive call are fits to weak or partial responses and may not hold up. Starred links: 1 amine or outer side, 2 acyl side, 3 side chain; linkers in the order of their positions; H or OH if unused. Positions of bridges follow the written chain, without caps; N, C: chain ends. Non-standard residues stand in square brackets, D forms with d. Residues, ends and D or L forms follow the SMILES beside them. ξ: configuration not given here. hSer(Ph(2-I,4-NO2,6-CO)) = O=C([C@H](CCOc1c(I)cc([N+](=O)[O-])cc1C(=O)[*:3])N[*:1])[*:2]; ξD = NC(CC(=O)O)C(=O)O

Each compound was assayed against DNA polymerase kappa (Homo sapiens) (UniProt Q9UBT6) (assay: qHTS for Inhibitors of Polymerase Kappa). Settings: purified Pol kappa, fluorescent DNA synthesis assay, 10 min; series mostly up to 107 µM; activity, negative = inhibition: at the top concentration.
UniProt Q9UBT6, sequence (Q9UBT6 whole entry, looked up): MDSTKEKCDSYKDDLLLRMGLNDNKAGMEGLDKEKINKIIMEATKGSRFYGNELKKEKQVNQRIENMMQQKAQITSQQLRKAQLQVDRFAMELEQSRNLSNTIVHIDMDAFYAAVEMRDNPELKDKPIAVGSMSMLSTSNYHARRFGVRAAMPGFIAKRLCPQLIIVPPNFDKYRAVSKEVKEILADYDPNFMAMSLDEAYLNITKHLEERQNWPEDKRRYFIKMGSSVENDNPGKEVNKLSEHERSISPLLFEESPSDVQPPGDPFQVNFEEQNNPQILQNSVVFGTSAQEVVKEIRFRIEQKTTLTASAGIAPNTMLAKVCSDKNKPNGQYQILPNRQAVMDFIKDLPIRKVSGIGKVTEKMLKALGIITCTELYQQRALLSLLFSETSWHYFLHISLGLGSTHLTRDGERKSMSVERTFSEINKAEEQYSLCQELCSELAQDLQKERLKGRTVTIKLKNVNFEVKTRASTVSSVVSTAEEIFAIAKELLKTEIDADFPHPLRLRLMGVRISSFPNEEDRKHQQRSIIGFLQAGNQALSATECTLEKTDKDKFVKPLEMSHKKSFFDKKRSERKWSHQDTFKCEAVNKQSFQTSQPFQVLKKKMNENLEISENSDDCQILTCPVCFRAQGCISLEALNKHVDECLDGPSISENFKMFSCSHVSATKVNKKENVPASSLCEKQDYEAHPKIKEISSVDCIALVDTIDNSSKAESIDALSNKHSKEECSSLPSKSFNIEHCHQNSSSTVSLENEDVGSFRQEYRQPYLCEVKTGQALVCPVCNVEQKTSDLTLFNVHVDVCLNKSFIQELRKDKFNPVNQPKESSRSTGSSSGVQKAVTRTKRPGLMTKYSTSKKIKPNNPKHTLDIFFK
Outline: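 10 nM Pol kappa preincubated 15 min at room temperature with compounds, then reaction started with substrate at 50 nM final. Fluorescence read kinetically at 0 and 10 min; buffer-only wells served as negative control.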
% is scaled to controls: 0 for no effect and ±100 for the full control effect; potency is read from the fitted curve at half-maximal effect; tags tell the direction and shape of the fitted curve.

activity, negative = inhibition, inactive:
CN(C)CCCNc1cc(N2CCN(C3CCCCC3)CC2)c2noc3c2c1C(=O)c1ccccc1-3 -19.7%
O=C(O)c1c2cc(Br)ccc2nc2[nH]c(=O)[nH]c(=O)c12 -13.8%
COc1ccc(/C=C2\SC(=S)N(CCC(=O)NCCCn3ccnc3)C2=O)cc1 11.2%
CCc1ccc2oc(C(=O)Nc3cccnc3)c(C)c2c1 -20.2%
COC(=O)C1=C(C)N(CC2CC2)C(=O)N[C@H]1c1ccccc1 -16.2%
CN(Cc1ccc(C(C)(C)C)cc1)C(=O)Cc1ccc(S(=O)(=O)N2CCOCC2)s1 -7.28%
Cc1ccc(C)c(Nc2nn3c(=O)c4cc5c(cc4nc3s2)OCO5)c1 -7.86%
Cc1snc(S(=O)(=O)/C(C#N)=N/Nc2ccc(C(F)(F)F)cc2)c1C#N 0.742%
O=C(COCc1cc(-c2ccc3c(c2)OCO3)on1)Nc1cc(C(F)(F)F)ccc1Cl -3.28%
CCOc1ccc(CCNC(=O)CS(=O)(=O)Cc2nc(-c3ccccc3F)oc2C)cc1 -7.96%
CCCNC1=C(N(C(C)=O)c2cccc(F)c2)C(=O)c2ccccc2C1=O 0.126%
CC#CC(=O)Nc1cc2c(Nc3ccc(F)c(Cl)c3)ncnc2cn1 5.45% [at 60.1 µM]
CSc1nn(Cc2cccc(Cl)c2)c(N(C(C)=O)C(C)=O)c1S(=O)(=O)c1ccccc1 -13.7%
Clc1ccc(C(c2nnnn2C2CCCC2)N2CCN(Cc3ccncc3)CC2)cc1 (centres undefined) -12.5%
Cc1ccc(Cn2c(=O)n(-c3cc(C)cc(C)c3)c(=O)c3oc4ccccc4c32)cc1 -5.92%
Cc1ccc(-c2noc(-c3nnn(-c4ccc(Br)cc4F)c3C)n2)cc1 3.41%
CCOCCCNC(=O)c1ccc2c(=O)n(CCc3ccc(OC)c(OC)c3)c(=O)[nH]c2c1 -8% [at 60.1 µM]
Cc1ccc(C(=O)Oc2cc(C)n(C)c(=O)c2)cc1 -0.667%
Cc1cc2nc(C3CCN(C(=S)NCCCOC(C)C)CC3)[nH]c2cc1C 2%
O=C(COc1ccc(Cl)cc1)OCC(=O)N1CCCCCC1 3.64%
Cc1nc2sccn2c(=O)c1Cl 1.39%
CCC(Sc1nnc(-c2ccc(OC)c(OC)c2)c(-c2ccc(OC)c(OC)c2)n1)C(=O)NC1CCCC1 (centres undefined) -0.581% [at 60.1 µM]
C#CCn1c(=NC(=O)CN2C(=O)CCC2=O)sc2cccc(OC)c21 8.21%
Cc1ccccc1C(=O)N1CCN(c2ccc(NC(=O)c3ccc([N+](=O)[O-])o3)cc2)CC1 12.7%
CCOC(=O)c1c(S(=O)(=O)N2CCCC(C(=O)NCc3ccccc3OC)C2)c(C)n(C)c1C (centres undefined) 1.65% [at 60.1 µM]
CC(C(=O)Nc1ccc([N+](=O)[O-])cc1Cl)N1CCN(S(=O)(=O)c2cccs2)CC1 (centres undefined) -10.9%

Potency, active:
O=C(O)c1cccc(-n2cccc2/C=C\[N+](=O)[O-])c1 50.1 µM
CCc1ccc(N2CSC3=C(C#N)C(c4cccs4)CC(=O)N3C2)cc1 (centres undefined) 79.4 µM
CC(C)(CS(=O)(=O)[O-])NC(=O)CC[N+](C)(C)CCO 22.4 µM
O=C(O)c1cc(N=Nc2c(O)ccc3ccccc23)cc(C(=O)O)c1 20 µM
COC(=O)C1=C(O)/C(=C\c2ccc(CNS(=O)(=O)c3ccc(Cl)cc3)o2)N=C1C 79.4 µM
C=CCNC(=O)c1ccc(Cn2c(=S)[nH]c3cc4c(cc3c2=O)OCO4)cc1 79.4 µM
CCn1c(SCC(=O)Nc2ccc3c(c2)c2ccccc2n3CC)nnc1-c1ccco1 35.5 µM
O=C1C(O)=C(O)C(=O)C(O)=C1O 5.32 µM and 8.91 µM
Cc1ccc(NC(=O)C2CCCN2C(=O)OCc2ccccc2)cc1F (centres undefined) 79.4 µM

Potency, inconclusive:
Cc1ccc(NC(=O)CN(C)C(=O)c2cccc(S(=O)(=O)NCc3ccco3)c2)cc1 89.1 µM [inhibitor, partial curve, poor fit]
Cc1cccc(NC(=O)C2CCCN2S(=O)(=O)c2ccc3nc(-c4ccccc4)[nH]c3c2)c1 (centres undefined) 89.1 µM [inhibitor, single point]
O=C(c1ccc(Cl)cc1Cl)n1nnc2ccccc21 42.3 µM [inhibitor, partial curve, poor fit]
CC(=O)Nc1ccc(-c2ccc(NC(C)=O)c(O)c2)cc1O 100 µM [inhibitor, single point]
C/C=C\C=C/C(=O)Nc1cccc(C2=NOC3(C2)C[C@H](C(N)=O)N(C(=O)c2ccc(OC)cc2)C3)c1 (some centres undefined) 79.4 µM [inhibitor, partial curve, poor fit]
COC(=O)C1OC(=O)C2OC23[C@]2(C)C(O)CC4C(C)(C)C(OC(C)=O)CC(OC(C)=O)[C@@]4(C)C2CC[C@@]13C (some centres undefined) 3.98 µM [inhibitor, partial curve, poor fit]
CC(=O)Oc1cccc2c1C(=O)C1CC=CC(OC(C)=O)C1C2=O (centres undefined) 79.4 µM [inhibitor, partial curve, poor fit]
O=C(Nc1ccc(F)c(F)c1)c1cc(S(=O)(=O)N2CCN(c3ccccn3)CC2)ccc1F 63.1 µM [inhibitor, partial curve, poor fit]
O=C1CCCC(O)=C1Sc1ccccc1C(=O)O 89.1 µM [inhibitor, single point]
COC(=O)c1c(C)[nH]c(C)c1C(C)=O 89.1 µM [inhibitor, single point]
CC(Sc1ccsc1[N+](=O)[O-])C(=O)N1CCN(c2ccccn2)CC1 (centres undefined) 89.1 µM [inhibitor, single point]
COc1ccc(-c2nc3cnc(Nc4ccccc4)nc3n(C[C@H]3CCCO3)c2=O)cc1 10 µM [inhibitor, partial curve, poor fit]
C=CCn1c(COc2ccc(F)cc2)nnc1SCC(=O)NC(=O)NCc1ccco1 89.1 µM [inhibitor, single point]
Cc1c2c(=O)n(-c3nc4ccccc4s3)nc-2cc(O)n1Cc1ccccc1 56.2 µM [inhibitor, partial curve, poor fit]
COC(=O)C(Cc1c[nH]c2ccccc12)NC(=O)c1cccs1 (centres undefined) 100 µM [inhibitor, single point]
CC1Cc2ccccc2N1C(=O)CSc1nnc(NC(=O)Cc2cccs2)s1 (centres undefined) 89.1 µM [inhibitor, single point]
O=C(CSc1ccccc1Cl)c1ccco1 89.1 µM [inhibitor, single point]
O=C(O)C1=CC[C@@H](c2ccc(Cl)cc2)N(S(=O)(=O)c2ccc(Cl)cc2)[C@H]1c1cccc(Cl)c1 89.1 µM [inhibitor, single point]
Cc1oc(C)c2c(=O)cc(-c3ccc4c(c3)OCO4)cc(OC(=O)c3cccc(Cl)c3)c12 89.1 µM [inhibitor, single point]
COC(=O)Cn1c(=O)c2c(n(Cc3ccccc3)c1=O)N/C(=C/c1ccc(Br)cc1)C2=O 89.1 µM [inhibitor, partial curve, poor fit]
COc1ccc(/C=C/C(=O)Nc2ccc3nc4c(c(Nc5ccc(OC)c(OC)c5)c3c2)CCCC4)cc1 63.1 µM [inhibitor, partial curve, poor fit]
O=C(Nc1nncs1)c1cc(-c2ccco2)nc2ccccc12 100 µM [inhibitor, single point]
CC(=O)c1ccc(N2CCN(C(=O)COc3ccc4c(c3)CCC4)CC2)cc1 89.1 µM [inhibitor, single point]
NC(=S)N/N=C/c1cccc(O)c1O 89.1 µM [inhibitor, single point]
Cc1nc2ccccc2nc(C)c1=NOCc1cccc(F)c1 89.1 µM [inhibitor, single point]
CCOC(=O)C1=C(c2ccccc2)c2ccc(OC)cc2N(S(=O)(=O)C(F)(F)F)C1C(=O)OCC (centres undefined) 35.5 µM [inhibitor, partial curve, poor fit]
Cc1cc(=O)[nH]c(SCC(=O)c2ccc(O)c(O)c2)n1 89.1 µM [inhibitor, single point]
COc1cc(/C=N/NC(=O)c2ccc(-c3ccccc3)cc2)cc(OC)c1OC 56.2 µM [inhibitor, partial curve, poor fit]
O=C(Nc1cccc(F)c1)c1cc(-c2ccco2)nc2ccccc12 89.1 µM [inhibitor, single point]
NC(=O)C(CC(=O)O)NC(=O)[C@@H]1CCOc2c(I)cc([N+](=O)[O-])cc2C(=O)N[C@@H](CCC(=O)O)C(=O)N[C@@H](CO)C(=O)N1 (some centres undefined) (ES[hSer(Ph(2-I,4-NO2,6-CO))][ξD]-NH2; lactam N-3) 50.1 µM [inhibitor, partial curve, poor fit]
O=[N+]([O-])c1cc(S(=O)(=O)Nc2ccccc2)ccc1Nc1ccccc1 89.1 µM [inhibitor, single point]
O=C(O)c1c2c(nc3ccc(S(=O)(=O)N4CCC(C(=O)N5CCCCC5)CC4)cc13)CCCC2 79.4 µM [inhibitor, partial curve, poor fit]
COc1ccc(-c2onc3ccc(C(=O)/C=C/N(C)C)cc23)cc1 89.1 µM [inhibitor, single point]
CCc1ccc(OC(=O)/C=C/c2ccco2)cc1 89.1 µM [inhibitor, single point]
